These results are taken from the supplement of paper PMC4723716.

± gives the uncertainty stated by the source. The full ranking holds about 9,900 compounds; the median of “viability index relative to DMSO control” is about 1, and the lowest 2% start at about 0.85. This is one part of the list.

The assay has as its system Plasmodium falciparum NF54 stage V gametocytes. As to the kind of experiment: viability index relative to DMSO control (fraction); higher = less gametocyte killing. The conditions noted are these: 2.5 µM, library set: Broad Institute DOS, incubation time: 72 h. As for the experimental part: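 Broad DOS informer set and blood-stage-active DOS compounds screened in duplicate at 2.5 µM against P. falciparum NF54 stage V gametocytes with the serum-free one-step SaLSSA (1536-well): 72 h at 37 °C under low oxygen, then saponin lysis and MitoTracker Red CMXRos staining, with high-content imaging. Viability index = viable-object count divided by the plate mean of DMSO wells (0 = killed, about 1 = inactive).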
In turn, `O=C(Nc1cccc(F)c1)N1CCCCN2[C@H](CO)[C@H](c3ccc(C#Cc4cccnc4)cc3)[C@@H]2C1` registered a viability index of 1.05 ± 0.024.

`CCCNC(=O)N1CC[C@@]2(CC1)CN([C@@H](CO)c1[nH]c3cc(OC)ccc3c21)C(=O)COC` came in with a viability index of 0.921 ± 0.14.

Compound `O=C(CN1CCOCC1)NC[C@@H]1N[C@@H](CO)[C@@H]1c1ccc(-c2ccccc2)cc1` came in with a viability index of 1.05 ± 0.088.

In the case of `Cc1ccccc1S(=O)(=O)N1CC[C@@H]2[C@@H](CO)Nc3ccc(-c4ccc(F)cc4)cc3[C@@H]21`, the viability index turned out to be 1.1 ± 0.06.

`COc1ccccc1NC(=O)N1CC[C@@H]2[C@H]1c1cc(C#Cc3cccc(F)c3)ccc1N(C)[C@@H]2CO` registered a viability index of 1.01 ± 0.023.

In turn, `OC[C@@H]1[C@@H](c2ccccc2)C2(CN(Cc3ccccn3)C2)N1Cc1cncnc1` came in with a viability index of 1.09 ± 0.054.

As for `Cc1noc(C)c1S(=O)(=O)Nc1ccc2c(c1)CC(=O)N([C@H](C)CO)C[C@@H](C)[C@@H](CN(C)Cc1ccc(Oc3ccccc3)cc1)O2`, the viability index came to 0.948 ± 0.021.

In the case of `COc1ccccc1NC(=O)N1CCCCN2[C@H](CO)[C@H](c3ccc(-c4cccc(C#N)c4)cc3)[C@H]2C1`, the viability index came out at 1.07 ± 0.011.

The compound `CCCNC(=O)C[C@@H]1CC[C@H]2[C@@H](COC[C@@H](O)CN2C(=O)c2ccc(F)cc2)O1` had a viability index of 1.05 ± 0.025.

Compound `C[C@H](CO)N1C[C@H](C)[C@H](CN(C)C(=O)Nc2ccc3c(c2)OCO3)OCc2ccccc2-c2c(n(C)c3ccccc23)C1=O` registered a viability index of 1.02 ± 0.057.

With `CO[C@H]1CN(C)C(=O)c2ccc(NS(=O)(=O)CC(F)(F)F)cc2OC[C@@H](C)N(Cc2nccs2)C[C@@H]1C`, the viability index was determined as 1.05 ± 0.028.

In turn, `COc1cccc(NC(=O)C[C@H]2CC[C@@H]3[C@@H](COc4ccc(NC(=O)C5CC5)cc4C(=O)N3C)O2)c1` registered a viability index of 1.24 ± 0.05.

With `COc1ccc(NC(=O)N2C[C@@]3(C2)CN([C@@H](CO)c2[nH]c4cc(OC)ccc4c32)C(C)=O)cc1`, the viability index came to 1.01 ± 0.1.

Regarding `COc1ccc2c3c([C@@H](CO)N(Cc4ccccc4Cl)C[C@]33CCN(CC3)C(=O)CC3CC3)n(C)c2c1`, the viability index was 0.939 ± 0.025.

In the case of `CCCNC(=O)N(C)C[C@H]1Oc2cc(C#C[C@@H](C)O)ccc2S(=O)(=O)N([C@H](C)CO)C[C@H]1C`, the viability index came to 1.08 ± 0.019.

As for `CCCC(=O)N1CC[C@@]2(CC1)CN([C@H](CO)c1c2c2ccc(OC)cc2n1C)C(C)=O`, the viability index amounted to 1.05 ± 0.14.

For the compound `C[C@@H]1CCCCO[C@@H](CN(C)C(=O)Cc2ccccc2)[C@H](C)CN([C@H](C)CO)C(=O)c2cc(NS(C)(=O)=O)ccc2O1`, the viability index was 1.12 ± 0.058.

`C[C@H](NC(=O)[C@H]1[C@H](CO)[C@H]2Cn3c(ccc(-c4ccccc4)c3=O)[C@H]2N1C)c1ccccc1`: the viability index was found to be 1.03 ± 0.049.

`COc1ccc(-c2ccc([C@@H]3[C@H]4CN(C(=O)Cc5ccccn5)CC(=O)N4[C@H]3CO)cc2)cc1`: the viability index amounted to 0.977 ± 0.015.

As for `COCCNC(=O)C[C@@H]1CC[C@H]2[C@@H](COC[C@@H](O)CN2S(=O)(=O)c2ccccc2F)O1`, the viability index amounted to 1 ± 0.017.

Turning to `CN(C)CC(=O)N1C[C@@H]2[C@H](c3ccccc31)[C@H](CO)N2C(=O)c1ccccn1`, the viability index was 1.03 ± 0.061.

As to `CCC(=O)N1[C@H](CN(CC)C(=O)c2cccc(F)c2)[C@H](c2ccccc2)[C@@H]1CO`, the viability index was determined as 0.987 ± 0.011.

`COc1ccccc1-c1ccccc1[C@@H]1[C@@H](C#N)N(C(=O)C2CCOCC2)[C@H]1CO`: the viability index is 1.05 ± 0.16.

Consider `O=C(c1cnccn1)N1CC(=O)N2[C@H](CO)[C@H](c3ccc(-c4cccc(F)c4)cc3)[C@@H]2C1`, for which the viability index came out at 1.04 ± 0.1.

The compound `COCC(=O)Nc1ccc2c(c1)[C@H]1C[C@@H](CC(=O)NCc3ccc4c(c3)OCO4)O[C@@H](CO)[C@H]1O2` came in with a viability index of 1.06 ± 0.013.

Compound `O=C(Nc1ccc(C(F)(F)F)cc1)Nc1ccc2c(c1)[C@@H]1C[C@H](CC(=O)N3CCc4ccccc4C3)O[C@@H](CO)[C@@H]1O2` came in with a viability index of 0.939 ± 0.014.

`CO[C@H]1CN(C)C(=O)c2cc(NS(=O)(=O)c3ccc(Cl)cc3)ccc2OC[C@@H](C)N(C(=O)NC(C)C)C[C@H]1C`: the viability index came out at 1.08 ± 0.087.

`Cc1ccc(-c2ccc([C@H]3[C@@H](CO)N4C(=O)CN(C(=O)NC(C)C)C[C@@H]34)cc2)cc1` displayed a viability index of 1.06 ± 0.066.

Compound `Cc1ccc(-c2ccccc2[C@@H]2[C@H](C#N)N(c3ncc(-c4ccccc4)s3)[C@H]2CO)cc1` gave a viability index of 1.18 ± 0.093.

For `C[C@@H]1CN([C@H](C)CO)C(=O)CCCn2nncc2CO[C@@H]1CN(C)C(=O)c1cc(-c2ccccc2)on1`, the viability index worked out at 0.984 ± 0.055.

For `C[C@H]1CN([C@@H](C)CO)C(=O)Cc2cc(NS(=O)(=O)c3ccc(F)cc3)ccc2O[C@H]1CN(C)Cc1ccncc1`, the viability index is 1 ± 0.12.

`COc1cccc(S(=O)(=O)N2C[C@@H](O)COC[C@@H]3O[C@H](CC(=O)N4CCN(c5ccccc5)CC4)CC[C@H]32)c1` had a viability index of 1.03 ± 0.013.

As for `CCCC(=O)N1C[C@@]2(C1)CN(Cc1ccccc1F)[C@H](CO)c1c2c2ccc(OC)cc2n1C`, the viability index amounted to 0.935 ± 0.17.

With `CC[C@H]1C/C=C\C[C@@H](c2ccccc2)NC(=O)CCC(=O)N1`, the viability index is 1.04 ± 0.026.

The compound `COc1cccc(CN2C[C@@H]3N[C@H](C2)[C@@H]3c2ccc(-c3ccccc3C)cc2)c1` yielded a viability index of 1.06 ± 0.094.

`C[C@@H]1CN([C@@H](C)CO)C(=O)c2cc(NS(C)(=O)=O)ccc2O[C@@H]1CN(C)C`: the viability index was 1.01 ± 0.02.

The compound `O=C(C[C@H]1CC[C@H]2[C@@H](COC[C@H](O)CN2CCC(F)(F)F)O1)NCC1CC1` came in with a viability index of 1.06 ± 0.055.

Compound `CCCNC(=O)N1[C@@H]2CNC[C@H]1[C@H]2c1ccc(-c2ccccc2)cc1` had a viability index of 1.003 ± 0.0091.

Compound `CCCC(=O)Nc1ccc2c(c1)C(=O)N(C)C[C@H](OC)[C@@H](C)CN(Cc1ccc(F)cc1)[C@H](C)CO2` showed a viability index of 0.95 ± 0.032.

With `CN1C(=O)c2cc(NC(=O)c3cccc(F)c3)ccc2OC[C@@H]2O[C@@H](CC(=O)NCc3ccccc3Cl)CC[C@@H]21`, the viability index is 0.999 ± 0.063.

In turn, `CO[C@H]1CC[C@H]2CCOc3c(C#N)cccc3C(=O)N(C)C[C@H](c3ccccc3)CC(=O)N(C)C[C@H]1O2` showed a viability index of 1.017 ± 0.0038.

For `CN1C(=O)c2cc(NC(=O)Cc3cccs3)ccc2OC[C@H]2O[C@@H](CC(=O)NCCc3ccncc3)CC[C@H]21`, the viability index was 1.16 ± 0.07.

The compound `COc1ccccc1NC(=O)N[C@H]1CC[C@H](CCNS(=O)(=O)c2ccc(Cl)cc2)O[C@H]1CO` returned a viability index of 0.918 ± 0.015.

In turn, `COc1cccc(CNC(=O)C[C@@H]2CC[C@@H]3[C@H](COc4ccc(NC(=O)c5cccs5)cc4C(=O)N3C)O2)c1` gave a viability index of 0.94 ± 0.041.

The compound `C/C=C/c1cnc2c(c1)C(=O)N([C@H](C)CO)C[C@H](C)[C@@H](CN(C)C(=O)Nc1cccc(OC)c1)O2` came in with a viability index of 1.031 ± 0.009.
